In US10233249B2, “Antibodies and methods for treating estrogen receptor-associated diseases” (BEIJING SHENOGEN PHARMA GROUP LTD., priority 2013, dated 2019):
Residue numbers refer to the chain shown, from its start. In names and notes the source's numbering stands.

B1: SNGHZD (C3L + C6H): humanized antibody, light chain SEQ ID NO: 28, heavy chain SEQ ID NO: 32 (antibody)
heavy: QVQLVQSGAEVKKPGASVKVSCKASGYTFTSHNMHWVRQAPGQGLEWIGAIHPVNGDTAYNQKFKGKATLTVDKSTSTAYMELSSLRSEDTAVYYCAREGYGSVDYWGQGTLVTVSS[letters of human IgG1 constant region left out]
light: ETTVTQSPAFMSATPGDKVNISCITSTDIDDDMNWYQQKPGEAPILIISEGNTLRPGIPPRFSGSGYGTDFTLTINNIESEDAAYYFCLQSDNLPLTFGQGTKLEIKRTVAAPSVFIFPPSDEQLKSGTASVVCLLNNFYPREAKVQWKVDNALQSGNSQESVTEQDSKDSTYSLSSTLTLSKADYEKHKVYACEVTHQGLSSPVTKSFNRGEC
modifications: humanized SNGmB1 heavy chain V region T28 + Hu IgG1 C; humanized SNGmB1 light chain V region V4, P44, L46, S49 + Hu C
B2: SNGHZD (C3L + C5H): humanized antibody, light chain SEQ ID NO: 28, heavy chain SEQ ID NO: 30 (antibody)
heavy: B1 heavy with M81L
light: B1 light
modifications: humanized SNGmB1 heavy chain V region T28, L81 + Hu IgG1 C; humanized SNGmB1 light chain V region V4, P44, L46, S49 + Hu C
B3: SNGHZD (C1L + C6H): humanized antibody, light chain SEQ ID NO: 24, heavy chain SEQ ID NO: 32 (antibody)
heavy: B1 heavy
light: B1 light with G64S
modifications: humanized SNGmB1 heavy chain V region T28 + Hu IgG1 C; humanized SNGmB1 light chain V region V4, P44, L46, S49, S64 + Hu C
B4: SNGHZD (C2L + C5H): humanized antibody, light chain SEQ ID NO: 26, heavy chain SEQ ID NO: 30 (antibody)
heavy: B1 heavy with M81L
light: B1 light with P44A, G64S
modifications: humanized SNGmB1 heavy chain V region T28, L81 + Hu IgG1 C; humanized SNGmB1 light chain V region V4, L46, S49, S64 + Hu C
B5: SNGhB1: chimeric antibody: SNGmB1 V regions + human κC and human IgG1 C, SEQ ID NO: 20 and 22 (protein)
light: ETTVTQSPASLSMTIGEKVTIRCITSTDIDDDMNWYRKKPGQPPKLLISEGNTLRPGVPSRFSSSGYGTDFVFTIENMLSEDVADYYCLQSDNLPLTFGAGTKLELKRTVAAPSVFIFPPSDEQLKSGTASVVCLLNNFYPREAKVQWKVDNALQSGNSQESVTEQDSKDSTYSLSSTLTLSKADYEKHKVYACEVTHQGLSSPVTKSFNRGEC
heavy: QAYLQQSGAELVRPGASVKMSCKASGYTFTSHNMHWIKQTPRQGLEWIGAIHPVNGDTAYNQKFKGKATLTVDKSSSTAYLQLSSLTSEESAVYFCAREGYGSVDYWGQGTTLTVSS[letters of human IgG1 constant region left out]
modifications: SNGmB1 light chain V region + Hu C; SNGmB1 heavy chain V region + Hu IgG1 C
B6: SNGHZD (C1L + C5H): humanized antibody, light chain SEQ ID NO: 24, heavy chain SEQ ID NO: 30 (antibody)
heavy: B1 heavy with M81L
light: B1 light with G64S
modifications: humanized SNGmB1 heavy chain V region T28, L81 + Hu IgG1 C; humanized SNGmB1 light chain V region V4, P44, L46, S49, S64 + Hu C
B7: SNGHZD (C2L + C6H): humanized antibody, light chain SEQ ID NO: 26, heavy chain SEQ ID NO: 32 (antibody)
heavy: B1 heavy
light: B1 light with P44A, G64S
modifications: humanized SNGmB1 heavy chain V region T28 + Hu IgG1 C; humanized SNGmB1 light chain V region V4, L46, S49, S64 + Hu C

Target: T1, ER-α36 (Homo sapiens, UniProt P03372)
T1 sequence (P03372 284-310 isoform P03372-4): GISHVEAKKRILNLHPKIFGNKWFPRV
Assay: Biacore binding affinity of chimeric and humanized antibodies (Example 9)
Protocol: The humanized antibodies were purified and characterized using ELISA and Biacore for binding analysis.
The humanized antibodies were tested for their binding affinity to ER-α36.

Molecule	Ka
B1	1.33e+06 M⁻¹ s⁻¹
B2	3.54e+06 M⁻¹ s⁻¹
B3	2.89e+06 M⁻¹ s⁻¹
B4	3.46e+06 M⁻¹ s⁻¹
B5	1.74e+06 M⁻¹ s⁻¹
B6	744000 M⁻¹ s⁻¹
B7	1.28e+06 M⁻¹ s⁻¹
